The compounds below were run against T1, hCRTH2 (Homo sapiens, UniProt Q9Y5Y4) (assay: biochemical). Conditions: Ki (nM), Table A; Radioligand Binding Assay A, [3H]PGD2, HEK-hCRTH2 membranes.
T1 sequence (Q9Y5Y4 1-395): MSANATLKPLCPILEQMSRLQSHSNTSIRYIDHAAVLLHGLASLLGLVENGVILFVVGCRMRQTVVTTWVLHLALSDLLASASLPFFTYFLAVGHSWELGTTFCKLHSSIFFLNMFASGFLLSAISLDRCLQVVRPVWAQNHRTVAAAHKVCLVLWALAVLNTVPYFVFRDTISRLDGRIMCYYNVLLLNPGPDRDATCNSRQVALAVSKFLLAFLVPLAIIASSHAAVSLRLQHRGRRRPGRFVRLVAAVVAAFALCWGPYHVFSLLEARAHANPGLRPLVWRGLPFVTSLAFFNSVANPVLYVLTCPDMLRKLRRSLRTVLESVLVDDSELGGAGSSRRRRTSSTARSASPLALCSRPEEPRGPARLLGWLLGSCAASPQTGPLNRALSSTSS

Ki [nM]	SMILES
20.1 to 200	CN(C(=O)CCC(=O)O)C1c2ccccc2N(C(=O)c2cccc(Cl)c2)C2CCCC12 (racemic) [17AA]
20.1 to 200	O=C(O)CCC(=O)N(CCC(F)(F)F)C1c2ccccc2N(C(=O)c2ccc(OC(F)(F)F)cc2)C2CCCC12 (racemic) [17AB, 4-[[cis,cis-2,3,3a,4,9,9a-hexahydro-4-[4-(trifluoromethoxy)benzoyl]-1H-cyclopenta[b]quinolin-9-yl](3,3,3-trifluoropropyl)amino]-4-oxobutanoic acid]
5.1 to 20	CC1(N(C(=O)CCC(=O)O)C2c3ccccc3N(C(=O)c3ccc(OC(F)(F)F)cc3)C3CCCC32)CC1 (racemic) [17AC, 4-[[cis,cis-2,3,3a,4,9,9a-hexahydro-4-[4-(trifluoromethoxy)benzoyl]-1H-cyclopenta[b]quinolin-9-yl](1-methylcyclopropyl)amino]-4-oxobutanoic acid]
5.1 to 20	O=C(O)CCC(=O)N(CC1CCC1)C1c2ccccc2N(C(=O)c2ccc(OC(F)(F)F)cc2)C2CCCC12 (racemic) [17AD, 4-[(cyclobutylmethyl)[cis,cis-2,3,3a,4,9,9a-hexahydro-4-[4-(trifluoromethoxy)benzoyl]-1H-cyclopenta[b]quinolin-9-yl]amino]-4-oxobutanoic acid]
201 to 7500	CCN(C(=O)CCC(=O)O)C1c2ccccc2N(C(=O)C2CC2c2ccccc2)C2CCCC12 (racemic) [17AF, 4-[ethyl[cis,cis-2,3,3a,4,9,9a-hexahydro-4-[(2-phenyl-1-cyclopropyl)carbonyl]-1H-cyclopenta[b]quinolin-9-yl]amino]-4-oxobutanoic acid]
5.1 to 20	O=C(O)CCC(=O)N(C1CC1)C1c2ccccc2N(C(=O)c2cccc(Br)c2)C2CCCC21 (racemic) [17AH, 4-[[cis,cis-4-(3-bromobenzoyl)-2,3,3a,4,9,9a-hexahydro-1H-cyclopenta[b]quinolin-9-yl]cyclopropylamino]-4-oxobutanoic acid]
20.1 to 200	O=C(O)CCC(=O)N(C1CC1)C1c2ccccc2N(C(=O)c2ccccc2Br)C2CCCC21 (racemic) [17AJ, 4-[[cis,cis-4-(2-bromobenzoyl)-2,3,3a,4,9,9a-hexahydro-1H-cyclopenta[b]quinolin-9-yl]cyclopropylamino]-4-oxobutanoic acid]
1 to 5	O=C(O)CCC(=O)N(C1CC1)C1c2ccccc2N(C(=O)c2cccc(Oc3ccccc3)c2)C2CCCC21 (racemic) [17AK, 4-[cyclopropyl[cis,cis-2,3,3a,4,9,9a-hexahydro-4-(3-phenoxybenzoyl)-1H-cyclopenta[b]quinolin-9-yl]amino]-4-oxo-butanoic acid]
5.1 to 20	COc1cccc(C(=O)N2c3ccccc3C(N(C(=O)CCC(=O)O)C3CC3)C3CCCC32)c1 (racemic) [17AL, 4-[cyclopropyl[cis,cis-2,3,3a,4,9,9a-hexahydro-4-(3-methoxybenzoyl)-1H-cyclopenta[b]quinolin-9-yl]amino]-4-oxobutanoic acid]
20.1 to 200	COc1ccccc1C(=O)N1c2ccccc2C(N(C(=O)CCC(=O)O)C2CC2)C2CCCC21 (racemic) [17AM, 4-[cyclopropyl[cis,cis-2,3,3a,4,9,9a-hexahydro-4-(2-methoxybenzoyl)-1H-cyclopenta[b]quinolin-9-yl]amino]-4-oxobutanoic acid]
20.1 to 200	O=C(O)CCC(=O)N(C1CC1)C1c2ccccc2N(C(=O)c2ccc3ccccc3n2)C2CCCC21 (racemic) [17AN, 4-[cyclopropyl[cis.cis-2,3,3a,4,9,9a-hexahydro-4-(2-quinolinylcarbonyl)-1H-cyclopenta[b]quinolin-9-yl]amino]-4-oxobutanoic acid]
5.1 to 20	O=C(O)CCC(=O)N(C1CC1)C1c2ccccc2N(C(=O)c2ccc(OC(F)F)cc2)C2CCCC21 (racemic) [17AP, 4-[cyclopropyl[cis,cis-4-[4-(difluoromethoxy)benzoyl]-2,3,3a,4,9,9a-hexahydro-1H-cyclopenta[b]quinolin-9-yl]amino]-4-oxobutanoic acid]
20.1 to 200	O=C(O)CCC(=O)N(C1CC1)C1c2ccccc2N(C(=O)C2CCCCC2)C2CCCC21 (racemic) [17AQ, 4-((cis,cis-4-(cyclohexanecarbonyl)-2,3,3a,4,9,9a-hexahydro-1H-cyclopenta[b]quinolin-9-yl)(cyclopropyl)amino)-4-oxobutanoic acid]
5.1 to 20	O=C(O)CCC(=O)N(C1CC1)C1c2ccccc2N(C(=O)c2cccs2)C2CCCC21 (racemic) [17AR, 4-(cyclopropyl(cis,cis-4-(thiophene-2-carbonyl)-2,3,3a,4,9,9a-hexahydro-1H-cyclopenta[b]quinolin-9-yl)amino)-4-oxobutanoic acid]
20.1 to 200	O=C(O)CCC(=O)N(C1CC1)C1c2ccccc2N(C(=O)Cc2ccccc2)C2CCCC21 (racemic) [17AS, 4-(cyclopropyl(cis,cis-4-(2-phenylacetyl)-2,3,3a,4,9,9a-hexahydro-1H-cyclopenta[b]quinolin-9-yl)amino)-4-oxobutanoic acid]
5.1 to 20	Cc1cccc(C(=O)N2c3ccccc3C(N(C(=O)CCC(=O)O)C3CC3)C3CCCC32)c1 (racemic) [17AT, 4-(cyclopropyl(cis,cis-4-(3-methylbenzoyl)-2,3,3a,4,9,9a-hexahydro-1H-cyclopenta[b]quinolin-9-yl)amino)-4-oxobutanoic acid]
5.1 to 20	Cc1ccc(C(=O)N2c3ccccc3C(N(C(=O)CCC(=O)O)C3CC3)C3CCCC32)cc1 (racemic) [17AU, 4-(cyclopropyl(cis,cis-4-(4-methylbenzoyl)-2,3,3a,4,9,9a-hexahydro-1H-cyclopenta[b]quinolin-9-yl)amino)-4-oxobutanoic acid]
5.1 to 20	O=C(O)CCC(=O)N(C1CC1)C1c2ccccc2N(C(=O)c2ccccc2F)C2CCCC21 (racemic) [17AV, 4-(cyclopropyl(cis,cis-4-(2-fluorobenzoyl)-2,3,3a,4,9,9a-hexahydro-1H-cyclopenta[b]quinolin-9-yl)amino)-4-oxobutanoic acid]
5.1 to 20	O=C(O)CCC(=O)N(C1CC1)C1c2ccccc2N(C(=O)c2cccc(F)c2)C2CCCC21 (racemic) [17AW, 4-(cyclopropyl(cis,cis-4-(3-fluorobenzoyl)-2,3,3a,4,9,9a-hexahydro-1H-cyclopenta[b]quinolin-9-yl)amino)-4-oxobutanoic acid]
5.1 to 20	O=C(O)CCC(=O)N(C1CC1)C1c2ccccc2N(C(=O)c2ccc(F)cc2)C2CCCC21 (racemic) [17AX, 4-(cyclopropyl(cis,cis-4-(4-fluorobenzoyl)-2,3,3a,4,9,9a-hexahydro-1H-cyclopenta[b]quinolin-9-yl)amino)-4-oxobutanoic acid]
20.1 to 200	Cc1noc(C)c1C(=O)N1c2ccccc2C(N(C(=O)CCC(=O)O)C2CC2)C2CCCC21 (racemic) [17AY, 4-(cyclopropyl(cis,cis-4-(3,5-dimethylisoxazole-4-carbonyl)-2,3,3a,4,9,9a-hexahydro-1H-cyclopenta[b]quinolin-9-yl)amino)-4-oxobutanoic acid]
20.1 to 200	O=C(O)CCC(=O)N(C1CC1)C1c2ccccc2N(C(=O)Cc2cccs2)C2CCCC21 (racemic) [17AZ, 4-(cyclopropyl(cis,cis-4-(2-(thiophen-2-yl)acetyl)-2,3,3a,4,9,9a-hexahydro-1H-cyclopenta[b]quinolin-9-yl)amino)-4-oxobutanoic acid]
5.1 to 20	O=C(O)CCC(=O)N(C1CC1)C1c2ccccc2N(C(=O)c2cccc(OC(F)(F)F)c2)C2CCCC21 (racemic) [17Ai, 4-[cyclopropyl[cis,cis-2,3,3a,4,9,9a-hexahydro-4-[3-(trifluoromethoxy)benzoyl]-1H-cyclopenta[b]quinolin-9-yl]amino]-4-oxobutanoic acid]
20.1 to 200	O=C(O)CCC(=O)N(C1CC1)C1c2ccccc2N(C(=O)c2ccccc2OC(F)(F)F)C2CCCC21 (racemic) [17Ao, 4-[cyclopropyl[cis,cis-2,3,3a,4,9,9a-hexahydro-4-[2-(trifluoromethoxy)benzoyl]-1H-cyclopenta[b]quinolin-9-yl]amino]-4-oxobutanoic acid]
20.1 to 200	O=C(O)CCC(=O)N(C1CC1)C1c2ccccc2N(C(=O)CCc2ccccc2)C2CCCC21 (racemic) [17BA, 4-(cyclopropyl(cis,cis-4-(3-phenylpropanoyl)-2,3,3a,4,9,9a-hexahydro-1H-cyclopenta[b]quinolin-9-yl)amino)-4-oxobutanoic acid]
20.1 to 200	O=C(O)CCC(=O)N(C1CC1)C1c2ccccc2N(C(=O)COc2ccccc2)C2CCCC21 (racemic) [17BB, 4-(cyclopropyl(cis,cis-4-(2-phenoxyacetyl)-2,3,3a,4,9,9a-hexahydro-1H-cyclopenta[b]quinolin-9-yl)amino)-4-oxobutanoic acid]
20.1 to 200	O=C(O)CCC(=O)N(C1CC1)C1c2ccccc2N(C(=O)c2ccc(F)cc2F)C2CCCC21 (racemic) [17BC, 4-(cyclopropyl(cis,cis-4-(2,4-difluorobenzoyl)-2,3,3a,4,9,9a-hexahydro-1H-cyclopenta[b]quinolin-9-yl)amino)-4-oxobutanoic acid]
20.1 to 200	O=C(O)CCC(=O)N(C1CC1)C1c2ccccc2N(C(=O)c2cc(F)cc(F)c2)C2CCCC21 (racemic) [17BD, 4-(cyclopropyl((cis,cis-4-(3,5-difluorobenzoyl)-2,3,3a,4,9,9a-hexahydro-1H-cyclopenta[b]quinolin-9-yl)amino)-4-oxobutanoic acid]
5.1 to 20	O=C(O)CCC(=O)N(C1CC1)C1c2ccccc2N(C(=O)C2CC2c2ccccc2)C2CCCC21 (racemic) [17BE, 4-(cyclopropyl(cis,cis-4- trans-2-phenylcyclopropanecarbonyl)-2,3,3a,4,9,9a-hexahydro-1H-cyclopenta[b]quinolin-9-yl)amino)-4-oxobutanoic acid]

— patent US8592383B2, “Cycloalkyl-fused tetrahydroquinolines as CRTH2 receptor modulators” (Merck Sharp & Dohme Corp., priority 2011, dated 2013)
